Measured values from PubChem BioAssay AID1030 (National Center for Advancing Translational Sciences (NCATS), 2008).
Hit rate of the full screen: of about 220,000 compounds, about 16,000 (7.3%) were called active. This list was built around the results that the source calls inconclusive (neither active nor inactive); the mix of calls is not that of the screen. The call rests on the fitted dose curve; in most records, active means well fitted inhibition curve with a large enough effect (not every such curve was filed as active); inconclusive means small, poorly fitted or top-dose-only effect, or another doubt; inactive means no such curve, though single readings can be large or run the other way. Potencies of inconclusive entries are left out as doubtful fits.

Biological target: Aldehyde dehydrogenase 1A1 (Homo sapiens) (UniProt P00352)
Experiment: qHTS Assay for Inhibitors of Aldehyde Dehydrogenase 1 (ALDH1A1);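 on activity, negative = inhibition: plate controls were no enzyme wells and a reference inhibitor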
Details: Purified ALDH1A1, NADH fluorescence, propionaldehyde substrate; series mostly up to 75.3 µM; activity, negative = inhibition: at the top concentration
Potency means the concentration at half of the fitted maximal effect; tags describe the fitted curve by direction and shape.

Chain of UniProt P00352 (P00352 whole entry, looked up): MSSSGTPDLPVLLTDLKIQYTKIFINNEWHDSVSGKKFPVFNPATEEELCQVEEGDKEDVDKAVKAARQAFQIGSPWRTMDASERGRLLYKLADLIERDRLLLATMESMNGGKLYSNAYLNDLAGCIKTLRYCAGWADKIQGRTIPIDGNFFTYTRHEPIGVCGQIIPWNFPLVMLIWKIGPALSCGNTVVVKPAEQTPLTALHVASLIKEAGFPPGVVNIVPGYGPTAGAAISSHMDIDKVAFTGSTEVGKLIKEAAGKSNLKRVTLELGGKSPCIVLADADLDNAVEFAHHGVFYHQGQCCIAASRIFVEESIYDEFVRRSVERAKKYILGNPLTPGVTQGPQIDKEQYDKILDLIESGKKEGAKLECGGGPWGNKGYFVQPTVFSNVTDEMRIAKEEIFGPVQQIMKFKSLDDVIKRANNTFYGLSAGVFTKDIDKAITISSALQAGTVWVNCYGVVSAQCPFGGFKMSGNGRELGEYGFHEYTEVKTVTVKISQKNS

Question: Which Potency does the source give for `Cc1cc(N2CCOCC2)nc2cc(O)ccc12` here?
Answer: Its Potency is inconclusive [inhibitor, partial curve].

Question: Which Potency does the source give for `CCCn1nc([N+](=O)[O-])c(C(C#N)c2nc3ccccc3s2)c(Cl)c1=O` (stereo not given) here?
Answer: Its Potency is inconclusive [inhibitor, full curve].

Question: How did the Potency turn out when `Cc1ccc(CNC(=S)Nc2ccc(OC(F)F)cc2C)cc1` was run?
Answer: Its Potency is inconclusive [inhibitor, single point].

Question: With `CC1(C)CC(=O)c2sc(NC(=O)CN3CCOCC3)nc2C1` as the molecule, how does the Potency read?
Answer: Its Potency is active: 20 µM.

Question: With `O=C(CSc1nc2ccccc2[nH]1)Nc1ccc2c(c1)OCCO2` as the molecule, how does the Potency read?
Answer: Its Potency is inconclusive [inhibitor, partial curve].

Question: How did the Potency turn out when `CN(C)CCNC(=O)c1ccc2c(c1)N(Cc1ccc(F)cc1)CCS2` was run?
Answer: Its Potency is inconclusive [inhibitor, partial curve].

Question: With `Nn1c(Cc2ccc(F)cc2)n[nH]c1=S` as the molecule, how does the Potency read?
Answer: Its Potency is inconclusive [inhibitor, single point].

Question: For `O=C(Nc1nnc(C2CCCC2)s1)C1CCC1`, which Potency is on record?
Answer: Its Potency is inconclusive [inhibitor, single point].

Question: For `COc1cccc(C(=O)N/N=C(\CC(C)C)c2ccccc2)c1`, which “activity, negative = inhibition” value is on record?
Answer: The value was inactive: 2.01%.

Question: With `COC(=O)c1ccc(C)c(NS(=O)(=O)c2ccc3c(c2)OCCO3)c1` as the molecule, how does the Potency read?
Answer: Its Potency is active: 7.94 µM.

Question: How did the “activity, negative = inhibition” value turn out when `O=C(O)CSCC(=O)Nc1ccc(Cl)cc1C(F)(F)F` was run?
Answer: The value was inactive: 4.6%.

Question: Which Potency does the source give for `CCOc1ccc(NC(=O)c2ccccc2NC(=O)CN2CCN(C(C)=O)CC2)cc1` here?
Answer: The Potency was inconclusive [inhibitor, partial curve, poor fit].

Question: For `CCc1ccc(N2C(=O)Nc3ccccc3C2(O)C(=O)N2CCN(c3ccccn3)CC2)cc1` (stereo not given), which Potency is on record?
Answer: The Potency was inconclusive [inhibitor, single point].

Question: With `CCN(CC)C(=O)c1cc2sc3ccccc3c2s1` as the molecule, how does the Potency read?
Answer: The Potency was inconclusive [inhibitor, single point].

Question: For `CCN(CC)S(=O)(=O)c1ccc(N/N=C/c2ccccc2OCC(=O)O)c([N+](=O)[O-])c1`, which Potency is on record?
Answer: Its Potency is inconclusive [inhibitor, single point].

Question: Which Potency does the source give for `COc1ccc(-c2ccc(C#N)c(SCC(=O)NCCc3ccccc3)n2)cc1OC` here?
Answer: The Potency was inconclusive [inhibitor, partial curve].

Question: Which Potency does the source give for `Brc1ccccc1-c1nnc2sc(-c3ccc4c(c3)OCCO4)nn12` here?
Answer: The Potency was inconclusive [inhibitor, single point].

Question: With `CS(=O)(=O)Nc1cccc(-c2nc(Nc3ccc(F)cc3)c3ccccc3n2)c1` as the molecule, how does the Potency read?
Answer: The Potency was inconclusive [inhibitor, partial curve].

Question: `O=C(CN1C(=O)CCC1=O)NCC12CC3CC(CC(C3)C1)C2` was tested. Which Potency did it give?
Answer: The Potency was active: 1.12 µM.

Question: How did the Potency turn out when `CON(C)S(=O)(=O)c1ccc2c(c1)N(Cc1ccc(C)cc1)C(=O)C1CCCN21` (stereo not given) was run?
Answer: Its Potency is active: 10 µM.

Question: With `CCc1ccc2oc(-c3ccc(N)cc3)nc2c1` as the molecule, how does the Potency read?
Answer: The Potency was inconclusive [inhibitor, partial curve].

Question: Which Potency does the source give for `CC(CCc1ccccc1)NC(=O)C1CCN(C(=O)c2sccc2-n2cccc2)CC1` (stereo not given) here?
Answer: Its Potency is active: 0.355 µM.

Question: For `Cc1ccc(S(=O)(=O)NN2C(=O)c3ccccc3NC2c2ccco2)cc1` (stereo not given), which Potency is on record?
Answer: Its Potency is inconclusive [inhibitor, partial curve].

Question: Which Potency does the source give for `Cc1cc(C(=O)NCCN2CCN(c3cccc(Cl)c3)CC2)n(-c2ccccc2)n1` here?
Answer: The Potency was inconclusive [inhibitor, single point].

Question: `CC(C)c1c(O)nc(SCCN2CCOCC2)[nH]c1=O` was tested. Which Potency did it give?
Answer: Its Potency is inconclusive [inhibitor, single point].

Question: For `CC(C)NC(=O)N1CC[C@@]2(CCCN(C(=O)c3ccco3)C2)C1`, which Potency is on record?
Answer: The Potency was inconclusive [inhibitor, single point].

Question: With `O=C(CSc1nc2ccccc2n1CCc1ccccc1)c1ccc(O)c(O)c1` as the molecule, how does the Potency read?
Answer: The Potency was active: 14.1 µM.

Question: With `CCOc1cccc(/C=N/NC(=S)NCCN2CCOCC2)c1O` as the molecule, how does the “activity, negative = inhibition” value read?
Answer: The value was inactive: -10.2%.

Question: Which “activity, negative = inhibition” value does the source give for `COc1ccc(N2CCN(C(CNS(=O)(=O)c3cc(F)ccc3F)c3cccnc3)CC2)cc1` (stereo not given) here?
Answer: Its value is inactive: 2.26%.

Question: Which Potency does the source give for `NC(=O)c1ccccc1N/C=C/C(=O)c1cccs1` here?
Answer: The Potency was inconclusive [inhibitor, single point].

Question: For `CCC(=O)Nc1ccc(C(=O)CSc2nnc(-c3ccccc3F)n2CCc2ccccc2)cc1`, which Potency is on record?
Answer: The Potency was active: 22.4 µM.

Question: Which Potency does the source give for `O=C(NC(=S)Nc1ccc(S(=O)(=O)Nc2nccs2)cc1)c1ccc(F)c(F)c1` here?
Answer: The Potency was active: 25.1 µM.

Question: With `O=C(COC(=O)c1cnccn1)c1ccc(OC(=O)c2ccccc2)cc1` as the molecule, how does the “activity, negative = inhibition” value read?
Answer: Its value is inactive: 3.58%.

Question: With `CCCCC(=O)Nc1cccc(C(=O)N/N=C/c2ccc(OC)cc2OC)c1` as the molecule, how does the Potency read?
Answer: The Potency was inconclusive [inhibitor, single point].

Question: Which Potency does the source give for `CSc1ccc(/C=C/c2cc(=O)c3ccccc3[nH]2)cc1` here?
Answer: Its Potency is inconclusive [inhibitor, single point].

Question: For `CC(=O)N1CCCc2cc(S(=O)(=O)NCc3ccc(C)cc3)ccc21`, which Potency is on record?
Answer: The Potency was inconclusive [inhibitor, partial curve].

Question: For `COC(=O)c1ccc2c(c1)N(Cc1nc(-c3cccc(C)c3)oc1C)C(=O)C1CCCN21` (stereo not given), which Potency is on record?
Answer: The Potency was inconclusive [inhibitor, partial curve].

Question: `O=C(CN1CCC(c2nc3ccccc3s2)CC1)N1CCCCC1` was tested. Which Potency did it give?
Answer: The Potency was inconclusive [inhibitor, single point].

Question: For `CN(Cc1cc(=O)n2ccsc2n1)Cc1nc2ccccc2c(=O)[nH]1`, which Potency is on record?
Answer: Its Potency is inconclusive [inhibitor, single point].

Question: How did the Potency turn out when `CC1CCN(c2ccc(C(=O)NCc3cccs3)cn2)CC1` was run?
Answer: The Potency was inconclusive [inhibitor, partial curve].

Question: For `CCCn1c(NC(=O)c2ccc(Br)cc2)nc2ccccc21`, which Potency is on record?
Answer: Its Potency is inconclusive [inhibitor, single point].

Question: With `CCCCn1nnnc1SCC(=O)N1CCN(C(=O)c2ccco2)CC1` as the molecule, how does the Potency read?
Answer: The Potency was inconclusive [inhibitor, single point].

Question: `Cc1cccc2cc3c(N)c(C(=O)N4CCOCC4)sc3nc12` was tested. Which Potency did it give?
Answer: The Potency was inconclusive [inhibitor, partial curve].

Question: `C=CCOc1ccc(CNc2ccc3[nH]c(=O)[nH]c3c2)cc1OCC` was tested. Which Potency did it give?
Answer: Its Potency is inconclusive [inhibitor, single point].

Question: `CCN(c1ccccc1)S(=O)(=O)c1cccc(C(=O)OCc2nc3sc(C)c(C)c3c(=O)[nH]2)c1` was tested. Which Potency did it give?
Answer: Its Potency is inconclusive [inhibitor, single point].

Question: With `COc1ccccc1-c1nnc(NC(=O)C(C)SC2=NCCS2)s1` (stereo not given) as the molecule, how does the Potency read?
Answer: The Potency was inconclusive [inhibitor, single point].

Question: Which Potency does the source give for `O=C(CSc1ccc2c(c1)OCCO2)NCC1CCCO1` (stereo not given) here?
Answer: The Potency was inconclusive [inhibitor, partial curve].

Question: Which “activity, negative = inhibition” value does the source give for `CCCCCCCn1ccc(O)c(CC(=O)OC)c1=O` here?
Answer: Its value is inactive: 8.82%.

Question: How did the Potency turn out when `CCNc1ncc2nc(CCc3ccccc3)c(=O)n(C3CC3)c2n1` was run?
Answer: Its Potency is inconclusive [inhibitor, partial curve].

Question: How did the “activity, negative = inhibition” value turn out when `COCCn1nnnc1C(c1ccc(C)cc1)N1CCN(Cc2ccc3c(c2)OCO3)CC1` (stereo not given) was run?
Answer: The value was inactive: -4.85%.

Question: For `Nc1ncnc2c1ncn2CCOc1ccccc1`, which “activity, negative = inhibition” value is on record?
Answer: Its value is inactive: -3%.

Question: With `O=C(O)C(Cc1ccccc1)N1C(=O)/C(=C/C=C/c2ccco2)SC1=S` (stereo not given) as the molecule, how does the Potency read?
Answer: The Potency was active: 3.16 µM.

Question: Which Potency does the source give for `O=C(Sc1nnnn1C1CCCCC1)c1cccs1` here?
Answer: The Potency was active: 10 µM.

Question: `N#C/C(=C\c1ccc(-c2ccccc2)o1)C(=O)Nn1cnnc1` was tested. Which “activity, negative = inhibition” value did it give?
Answer: The value was inactive: -2.06%.

Question: For `CCCC(=O)c1cc(O)c(O)cc1O`, which Potency is on record?
Answer: The Potency was inconclusive [inhibitor, single point].

Question: `O=c1oc2ccccc2c(NC(c2ccccc2)c2ccccc2)c1[N+](=O)[O-]` was tested. Which Potency did it give?
Answer: Its Potency is active: 22.4 µM.

Question: How did the “activity, negative = inhibition” value turn out when `COC(=O)C(C(=O)OC)C(C[N+](=O)[O-])c1ccc(O)c(OC)c1` (stereo not given) was run?
Answer: Its value is inactive: 0.79%.

Question: How did the “activity, negative = inhibition” value turn out when `COc1ccc(-c2coc3cc(O)ccc3c2=O)cc1` was run?
Answer: Its value is inactive: -2.29%.

Question: With `COc1ccc2[nH]c(C)c(CCN(Cc3cccs3)C(=S)Nc3cccc(F)c3)c2c1` as the molecule, how does the Potency read?
Answer: The Potency was inconclusive [inhibitor, partial curve].

Question: How did the Potency turn out when `C=CCNC(=O)NC(=O)CSc1nc2cc([N+](=O)[O-])ccc2n1-c1cccc(C(F)(F)F)c1` was run?
Answer: The Potency was inconclusive [inhibitor, single point].

Question: For `Cc1cccc(N=C2NC(=O)/C(=C/C=C/c3ccco3)S2)c1C`, which Potency is on record?
Answer: Its Potency is active: 2.82 µM.

Question: `CCN1C(=O)C(CC(=O)Nc2ccc(OC)cc2)N(Cc2ccc3c(c2)OCO3)C1=S` (stereo not given) was tested. Which Potency did it give?
Answer: Its Potency is inconclusive [inhibitor, partial curve, poor fit].

Question: How did the Potency turn out when `COc1cc2c(C#N)c(N3CCOCC3)nc(N)c2c(N)n1` was run?
Answer: Its Potency is inconclusive [inhibitor, partial curve].

Question: With `CCCCCn1nc(C(=O)OCC(=O)c2c(N)n(C)c(=O)n(C)c2=O)c2ccccc2c1=O` as the molecule, how does the Potency read?
Answer: The Potency was inconclusive [inhibitor, partial curve].

Question: How did the Potency turn out when `O=C(CN1C(=O)/C(=C/c2cccc(Br)c2)SC1=S)Nc1cccnc1` was run?
Answer: Its Potency is inconclusive [inhibitor, single point].

Question: Which Potency does the source give for `Cc1ccc2cccc(SCC(=O)NCc3ccco3)c2n1` here?
Answer: Its Potency is inconclusive [inhibitor, single point].

Question: With `O=c1c(-c2ccccc2)nc2cnc(N3CCNCC3)nc2n1-c1ccccc1` as the molecule, how does the Potency read?
Answer: The Potency was inconclusive [inhibitor, partial curve].

Question: For `COc1ccc(-c2cc(C(=O)Nc3cc(C)on3)no2)cc1OC`, which Potency is on record?
Answer: Its Potency is inconclusive [inhibitor, single point].

Question: Which “activity, negative = inhibition” value does the source give for `Cc1cccc(NC(=O)CCCN2C(=O)c3ccccc3C2=O)n1` here?
Answer: The value was inactive: -0.58%.

Question: Which Potency does the source give for `CCN(c1ccc(F)cc1)S(=O)(=O)c1ccc2[nH]cc(C(=O)NCCCN3CCOCC3)c(=O)c2c1` here?
Answer: The Potency was inconclusive [inhibitor, single point].
